# Results from the supplement of paper PMC4604168 (melanoma cell lines).
# This is one part of the list. Repeats are few or missing, and single values can be far off.
# Experiments:
# Experiment in all cases: cell count relative to DMSO control; melanoma cells; higher = more viable cells
# Conditions in all cases: library dose: low library concentration; 72 h
# COLO792 = tested on: COLO792
# COLO800 = tested on: COLO800
# COLO829 = tested on: COLO829
# G361 = tested on: G361
# IPC-298 = tested on: IPC-298
# IST-MEL1 = tested on: IST-MEL1
# LB2518-MEL = tested on: LB2518-MEL
# LOXIMVI = tested on: LOXIMVI
# MEL-HO = tested on: MEL-HO
# MZ2-MEL = tested on: MZ2-MEL
# MeWo = tested on: MeWo
# RPMI7951 = tested on: RPMI7951
# RVH-421 = tested on: RVH-421
# SkMel28 = tested on: SkMel28
# SkMel2 = tested on: SkMel2
# SkMel30 = tested on: SkMel30
# SkMel5 = tested on: SkMel5
# UACC257 = tested on: UACC257
# UACC62 = tested on: UACC62
# 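Further: cell number obtained by counting DAPI-stained nuclei in high-throughput microscope images with image analysis software, screen run in 1,536-well plates.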
Compound,cell count (COLO792) [%],cell count (COLO800) [%],cell count (COLO829) [%],cell count (G361) [%],cell count (IPC-298) [%],cell count (IST-MEL1) [%],cell count (LB2518-MEL) [%],cell count (LOXIMVI) [%],cell count (MEL-HO) [%],cell count (MZ2-MEL) [%],cell count (MeWo) [%],cell count (RPMI7951) [%],cell count (RVH-421) [%],cell count (SkMel28) [%],cell count (SkMel2) [%],cell count (SkMel30) [%],cell count (SkMel5) [%],cell count (UACC257) [%],cell count (UACC62) [%]
"N.N.[Cl][Pt][Cl] [cisplatin] + CC1(C)NC(=O)N(c2ccc([N+](=O)[O-])c(C(F)(F)F)c2)C1=O [nilutamide] (first compound 1.6 µM, partner dose 1 µM)",81.7,91.8,86.6,100,110,88.2,91.5,150,87.6,102,104,76.7,85,71.6,99.6,93.6,105,109,105
"N.N.[Cl][Pt][Cl] [cisplatin] + COc1cc2ncnc(Nc3ccc(Oc4ccccc4)cc3)c2cc1OC [SrcI1] (first compound 1.6 µM, partner dose 2 µM)",103,101,100,87,96.5,97.8,109,83.5,101,89.2,100,111,119,103,100,113,103,93.8,91.5
"Cn1cc(C2=C(c3cn(C4CCN(Cc5ccccn5)CC4)c4ccccc34)C(=O)NC2=O)c2ccccc21 [Enzastaurin] + Cc1ccc(NC(=O)c2cccc(N(C)C)c2)cc1NC(=O)c1ccc(O)cc1 [ZM336372] (first compound 0.8 µM, partner dose 2 µM)",97.6,127,119,99.3,104,103,84.4,140,83.5,87.9,93.7,79.5,89.5,93.9,104,91.5,90.7,105,106
"Cn1cc(C2=C(c3cn(C4CCN(Cc5ccccn5)CC4)c4ccccc34)C(=O)NC2=O)c2ccccc21 [Enzastaurin] + N#Cc1c(O)c2c(-c3ccc(-c4ccccc4O)cc3)csc2[nH]c1=O [A769662] (first compound 0.8 µM, partner dose 2 µM)",110,85.3,100,110,110,112,31.3,61.3,115,94.7,123,99.3,79.9,96.5,122,110,111,88.8,113
"N.N.[Cl][Pt][Cl] [cisplatin] + COc1cc(N2CCC(N3CCN(C)CC3)CC2)ccc1Nc1ncc(Cl)c(Nc2ccccc2S(=O)(=O)C(C)C)n1 [NVP-TAE684] (first compound 1.6 µM, partner dose 0.08 µM)",95.5,83.7,94.1,80.2,110,109,112,98.3,107,102,88.7,92.5,81.9,75.2,96.1,86.3,95.9,56.3,90.5
"N.N.[Cl][Pt][Cl] [cisplatin] + O=C1NC(=O)/C(=C/c2ccc(-c3ccc(F)cc3O)o2)S1 [AS252424] (first compound 1.6 µM, partner dose 1 µM)",91.7,54.5,94.9,102,103,97.4,91.2,99.8,86.8,97.4,88.9,96,83.4,80.1,96.3,85.6,94.4,94.2,101
"N.N.[Cl][Pt][Cl] [cisplatin] + COC(=O)c1sccc1S(=O)(=O)Nc1ccc(Nc2ccccc2)cc1OC [GSK0660] (first compound 1.6 µM, partner dose 1 µM)",101,103,134,116,102,93.5,89.4,157,106,97.1,98.8,98.3,117,109,95.7,104,99.5,111,101
"N.N.[Cl][Pt][Cl] [cisplatin] + CO[C@@H]1[C@H](N(C)C(=O)c2ccccc2)C[C@H]2O[C@]1(C)n1c3ccccc3c3c4c(c5c6ccccc6n2c5c31)C(=O)NC4 [Midostaurin] (first compound 1.6 µM, partner dose 0.08 µM)",91.1,93.9,99.8,90.3,98.1,85,91.7,75.4,86.9,94,83.2,77.4,104,83.3,75.9,112,78.9,86.4,101
"N.N.[Cl][Pt][Cl] [cisplatin] + N#Cc1c(O)c2c(-c3ccc(-c4ccccc4O)cc3)csc2[nH]c1=O [A769662] (first compound 1.6 µM, partner dose 2 µM)",104,94.1,74.6,108,106,101,100,71.2,104,104,98.5,90.8,105,104,99,110,94.3,103,84.6
"N.N.[Cl][Pt][Cl] [cisplatin] + CC(C)CCN1c2nc(Nc3cc(F)c(O)c(F)c3)ncc2N(C)C(=O)C1C [BID1870] (first compound 1.6 µM, partner dose 0.2 µM)",98.5,104,123,93.2,103,105,101,96.1,103,109,87.9,101,102,79.8,101,105,101,115,95.4
"N.N.[Cl][Pt][Cl] [cisplatin] + COc1ccc(COc2ccc(Cc3cnc(N)nc3N)cc2OC)cc1 [GW2580] (first compound 1.6 µM, partner dose 1 µM)",93.1,122,116,104,96.9,93.6,108,136,101,100,93.5,106,110,97.1,114,116,110,96.5,115
"Cn1cc(C2=C(c3cn(C4CCN(Cc5ccccn5)CC4)c4ccccc34)C(=O)NC2=O)c2ccccc21 [Enzastaurin] + C/C(O)=C(\C#N)C(=O)Nc1cc(Br)ccc1Br [LFM-A13] (first compound 0.8 µM, partner dose 2 µM)",85.9,91.8,125,121,96.2,108,92.6,63,102,92.5,109,86.3,69,84.8,105,104,88.8,96.6,88.6
"Cn1cc(C2=C(c3cn(C4CCN(Cc5ccccn5)CC4)c4ccccc34)C(=O)NC2=O)c2ccccc21 [Enzastaurin] + Oc1nc(-c2ccc(C(F)(F)F)cc2)nc2c1CSCC2 [XAV939] (first compound 0.8 µM, partner dose 2 µM)",88.7,95.8,130,90.3,102,96.6,103,112,109,90.8,100,90.6,132,86.4,111,81.2,86,86.8,82.1
"N.N.[Cl][Pt][Cl] [cisplatin] + O=S(=O)(c1ccccc1)N(CC(F)(F)F)c1ccc(C(O)(C(F)(F)F)C(F)(F)F)cc1 [T0901317] (first compound 1.6 µM, partner dose 1.4 µM)",98.8,87.9,102,93.3,91.4,96.6,105,82.4,91.6,98.6,94.7,118,112,108,99.4,105,91.5,84.4,103
"N.N.[Cl][Pt][Cl] [cisplatin] + CCCCCCCCCCCC1=C(O)C(=O)C=C(O)C1=O [Embelin] (first compound 1.6 µM, partner dose 1.2 µM)",100,102,101,95.9,106,102,97.2,75,100,99.3,111,99.5,95.6,92.1,107,119,118,113,137
"C[As](C)SC[C@H](NC(=O)CC[C@H](N)C(=O)O)C(=O)NCC(=O)O [Darinaparsin] + CN(C)S(=O)(=O)c1ccc2c(c1)/C(=C/c1cc3c([nH]1)CCCC3)C(=O)N2 [SU6656] (first compound 0.4 µM, partner dose 0.4 µM)",108,83.1,101,111,105,98.6,94.3,108,103,109,91,119,87.8,99.1,108,93.8,96,83.4,99.1
"Cn1cc(C2=C(c3cn(C4CCN(Cc5ccccn5)CC4)c4ccccc34)C(=O)NC2=O)c2ccccc21 [Enzastaurin] + CN(NC(=O)CC(=O)NN(C)C(=S)c1ccccc1)C(=S)c1ccccc1 [STA4783] (first compound 0.8 µM, partner dose 0.006 µM)",68.1,49.2,72.1,75.6,93.1,88.8,59.5,61.5,95.8,101,107,84,111,105,98.4,113,104,97.4,102
"Cn1cc(C2=C(c3cn(C4CCN(Cc5ccccn5)CC4)c4ccccc34)C(=O)NC2=O)c2ccccc21 [Enzastaurin] + Cn1cc(/C=C2\C(=O)Nc3cccnc32)c2ccccc21 [GW441756] (first compound 0.8 µM, partner dose 0.4 µM)",98.5,54.3,116,102,101,101,85.7,84.7,98.5,94.2,103,103,72.9,97.7,105,87.1,94.7,63,95.3
